These are yes or no findings as the source states them, for the method shown. Binding seen in cells or lysates may run through a third protein. Some results given as binding are weak or reduced against the parent protein; the word gives no strength. Sequences can lack the tags named with a protein.

By UniProt entry, the sequences of proteins in these tests, tags left out.
UniProt O81283: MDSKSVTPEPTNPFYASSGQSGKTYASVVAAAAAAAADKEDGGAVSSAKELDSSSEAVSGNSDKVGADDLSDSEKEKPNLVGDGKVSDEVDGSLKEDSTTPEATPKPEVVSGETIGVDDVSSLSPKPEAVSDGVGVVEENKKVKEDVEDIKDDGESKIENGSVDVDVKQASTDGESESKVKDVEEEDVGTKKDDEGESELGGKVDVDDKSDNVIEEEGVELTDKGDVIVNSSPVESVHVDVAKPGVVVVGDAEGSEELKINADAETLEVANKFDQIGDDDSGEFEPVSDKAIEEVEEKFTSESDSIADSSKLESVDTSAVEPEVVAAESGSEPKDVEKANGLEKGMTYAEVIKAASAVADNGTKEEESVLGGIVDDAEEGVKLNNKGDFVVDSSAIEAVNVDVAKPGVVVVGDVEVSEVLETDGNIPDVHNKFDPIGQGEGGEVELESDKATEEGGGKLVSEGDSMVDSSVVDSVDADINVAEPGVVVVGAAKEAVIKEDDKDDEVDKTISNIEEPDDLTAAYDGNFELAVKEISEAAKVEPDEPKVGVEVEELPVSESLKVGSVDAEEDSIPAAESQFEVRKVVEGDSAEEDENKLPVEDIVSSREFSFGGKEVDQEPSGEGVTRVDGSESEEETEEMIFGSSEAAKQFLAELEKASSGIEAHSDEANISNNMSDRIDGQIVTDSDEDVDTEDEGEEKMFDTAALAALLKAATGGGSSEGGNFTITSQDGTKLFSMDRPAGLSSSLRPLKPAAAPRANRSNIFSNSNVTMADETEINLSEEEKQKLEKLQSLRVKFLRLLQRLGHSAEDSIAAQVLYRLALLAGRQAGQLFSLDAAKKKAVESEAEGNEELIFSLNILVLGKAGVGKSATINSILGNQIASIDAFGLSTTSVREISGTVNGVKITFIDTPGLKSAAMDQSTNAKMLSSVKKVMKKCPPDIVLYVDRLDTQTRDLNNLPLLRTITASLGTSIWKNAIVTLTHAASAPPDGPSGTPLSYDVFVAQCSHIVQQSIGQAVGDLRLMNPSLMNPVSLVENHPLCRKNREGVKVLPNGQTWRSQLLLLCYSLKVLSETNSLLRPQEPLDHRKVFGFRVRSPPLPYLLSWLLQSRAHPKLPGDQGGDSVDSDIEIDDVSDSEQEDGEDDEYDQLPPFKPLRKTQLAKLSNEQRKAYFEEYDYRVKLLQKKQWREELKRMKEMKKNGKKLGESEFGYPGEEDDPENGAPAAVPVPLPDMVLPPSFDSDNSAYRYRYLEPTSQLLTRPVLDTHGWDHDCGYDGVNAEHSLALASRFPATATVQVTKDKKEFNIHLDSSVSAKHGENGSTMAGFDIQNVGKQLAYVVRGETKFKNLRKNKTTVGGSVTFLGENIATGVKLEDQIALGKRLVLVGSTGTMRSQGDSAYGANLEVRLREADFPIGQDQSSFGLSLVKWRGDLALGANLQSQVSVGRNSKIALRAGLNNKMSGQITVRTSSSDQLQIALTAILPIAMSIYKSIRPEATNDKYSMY

The target in experiment [1] is T1, SP1-YFP (Arabidopsis thaliana) (UniProt Q8L7N4).
T1 sequence: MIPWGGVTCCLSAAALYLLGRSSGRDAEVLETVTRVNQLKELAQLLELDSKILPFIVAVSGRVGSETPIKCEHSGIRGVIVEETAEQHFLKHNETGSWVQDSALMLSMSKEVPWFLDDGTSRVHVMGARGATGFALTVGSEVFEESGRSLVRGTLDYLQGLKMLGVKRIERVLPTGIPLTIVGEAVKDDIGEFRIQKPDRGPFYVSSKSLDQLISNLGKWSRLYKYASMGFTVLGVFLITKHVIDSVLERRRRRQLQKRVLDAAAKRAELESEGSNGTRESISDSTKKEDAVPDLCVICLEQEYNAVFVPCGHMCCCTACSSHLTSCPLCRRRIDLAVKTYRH
Description: co-IP; YFP fusions transiently expressed in Arabidopsis protoplasts (5 uM bortezomib for the last 4 hours) used as baits; total protein extracts incubated with GFP-Trap MA magnetic beads 1 hour at 4°C; four washes with 25 mM Tris-HCl pH 7.5, 150 mM NaCl, 10% glycerol, 1 mM EDTA, 0.5% Triton-X100; eluates immunoblotted for endogenous TOC, Tic110 and Stic1/Alb4 proteins.

Experiment [2] has as its target T2, SPL2-YFP (Arabidopsis thaliana) (UniProt Q9SYH3).
T2 sequence: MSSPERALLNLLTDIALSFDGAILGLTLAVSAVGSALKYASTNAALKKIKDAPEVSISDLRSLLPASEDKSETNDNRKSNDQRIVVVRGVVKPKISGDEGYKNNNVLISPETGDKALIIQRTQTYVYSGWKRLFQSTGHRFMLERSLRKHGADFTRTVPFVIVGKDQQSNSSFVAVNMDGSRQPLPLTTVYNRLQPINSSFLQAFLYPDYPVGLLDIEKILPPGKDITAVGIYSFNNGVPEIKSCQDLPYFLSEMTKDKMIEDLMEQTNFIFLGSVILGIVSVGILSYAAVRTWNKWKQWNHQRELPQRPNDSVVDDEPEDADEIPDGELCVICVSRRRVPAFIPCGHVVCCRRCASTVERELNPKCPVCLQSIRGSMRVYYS
The experiment is described as above.

Experiment [3] has as its target T3, SP1-Myc (Arabidopsis thaliana) (UniProt Q8L7N4).
T3 sequence: T1 sequence
The experiment is described as follows: co-IP; coIP of SPL1 with SP1 in vivo (Figure S4A; legend not shown).

Toc159 (from UniProt O81283 1-1503): the binding result in experiment [1] and in experiment [2] was “binds” in each case.

B1: Toc33 (protein, UniProt O23680 1-297)
chain: MGSLVREWVGFQQFPAATQEKLIEFFGKLKQKDMNSMTVLVLGKGGVGKSSTVNSLIGEQVVRVSPFQAEGLRPVMVSRTMGGFTINIIDTPGLVEAGYVNHQALELIKGFLVNRTIDVLLYVDRLDVYRVDELDKQVVIAITQTFGKEIWCKTLLVLTHAQFSPPDELSYETFSSKRSDSLLKTIRAGSKMRKQEFEDSAIAVVYAENSGRCSKNDKDEKALPNGEAWIPNLVKAITDVATNQRKAIHVDKKMVDGSYSDDKGKKLIPLIIGAQYLIVKMIQGAIRNDIKTSGKPL
With B1, the binding result in experiment [1] and in experiment [2] was “binds” each time.

B2: Tic110 (protein, UniProt Q8LPR9 52-1016)
chain: SAASSDQLSVSTQAKNPGIHGNKKELTGLQPIVEKMTPPVRLATSAVVLAASLATGYGLGLRLAGSRNIAFGGAAVAGAAGGAVVYALNSAVPEVAAISLHNYVAEFEDPASVTKDDVEKIADRYGVNKGDEAFQAEICDIYCRYVTSVLPTEGQSLKGDEVAKIVKFKNALGIDEPDAAAMHMEIGRRIFRQRLETGEREGDAEQRRAFMRLVYVSALVFGDASSFLLPWKRVLKVTDAQVEIAIRENAKQLYAERLKLVGRDINVENLVDLRKSQLSFKLSDELAEDLFREHTRKVVVENISSALSILKSRTRAAKSLASVVEELEKVLEFNNLLVSLKSHSEADQFARGVGPISLIGDESDFERRMDDLKLLYRAYVTDALSGGRLEENKLVAMSQLRNILGLGKREAEAISVDVTSKSYRKRLANAVSSGDLEAQDSKAKYLQKLCEELHFDAQKAGAIHEEIYRQKLQQCVTDGELSDDNVAALLRLRVMLCIPQQTVDTAHAEICGTIFEKVVRDAISSGVDGYDAETRKSVRKAAHGLRLSRETAMSIASKAVRRVFTNYIRRARAAENRTDSAKELKKMIAFNTLVVTEMVADIKGESSDKAPEEDPVQEKEEDDEDEEWGSLESLRKTRPDKELAEKMGKPGQTEITLKDDLPDRDRIDLYKTYLLYCVTGEVTRIPFGAQITTKRDDSEYLLLNQLGGILGLSSKEIVNIHVGLAEQAFRQQAEVILADGQLTKARVEQLDELQKQVGLPQPQAEKVIKNITTTKMANAIETAVNQGRLNIKQIRELKEANVSLDSMIAVSLREKLFKKTVSDIFSSGTGEFDETEVYQTIPSDLSIDVEKAKRVVHDLAQSRLSNSLVQAVALLRQRNSKGVVLSLNDLLACDKAVPAEPMSWEVSEELSDLYAIYSKSDPKPAPEKVLRLQYLLGIDDSTATALREMEDGALSSAAEEGNFVF
Take B2: the binding result in experiment [1] and in experiment [2] was “no binding” each time.

B3: Toc75 (protein, UniProt Q9STE8 141-818)
chain: DEEQSPDWDSHGLPANIVVQLNKLSGFKKYKVSDIMFFDRRRQTTIGTEDSFFEMVSIRPGGVYTKAQLQKELETLATCGMFEKVDLEGKTKPDGTLGVTISFAESTWQSADRFRCINVGLMVQSKPIEMDSDMTDKEKLEYYRSLEKDYKRRIDRARPCLLPAPVYGEVMQMLRDQGKVSARLLQRIRDRVQKWYHDEGYACAQVVNFGNLNTKEVVCEVVEGDITQLVIQFQDKLGNVVEGNTQVPVVRRELPKQLRQGYVFNIEAGKKALSNINSLGLFSNIEVNPRPDEKNEGGIIVEIKLKELEQKSAEVSTEWSIVPGRGGAPTLASFQPGGSVTFEHRNLQGLNRSLMGSVTTSNFLNPQDDLSFKLEYVHPYLDGVYNPRNRTFKTSCFNSRKLSPVFTGGPGVEEVPPIWVDRAGVKANITENFTRQSKFTYGLVMEEITTRDESSHIAANGQRLLPSGGISADGPPTTLSGTGVDRMAFLQANITRDNTKFVNGAVVGQRTVFQVDQGLGIGSKFPFFNRHQLTMTKFIQLREVEQGAGKSPPPVLVLHGHYGGCVGDLPSYDAFVLGGPYSVRGYNMGELGAARNIAEVGAEIRIPVKNTHVYAFVEHGNDLGSSKDVKGNPTAVYRRTGQGSSYGAGVKLGLVRAEYAVDHNNGTGALFFRFGERY
As to B3, the binding result in experiment [1] and in experiment [2] was “binds” each time.

B4: SPL1-HA (protein, UniProt Q94HV7 1-338)
chain: MIHLAGFTCCLGGVALYLLTRSTGRDIKSITRVYQLKDLEQLVEVESKVVPLIIAVSGDVGSETPIKCEHSYVLGVFLKRTAEQQVLRRNWRFSWVRNSTLMQPMTKEVPWYLDDGTGRVNVDVSQGELGLALTVGSDVFEKAEPVSLVQGALGYLKGFKILGVRHVERVVPIGTPLTVVGEAVRDGMGNVRIQKPEQGPFYVTYIPLDQLISKLGDLSRRFKYASMGLTVLGVILISKPVIEYILKRIEDTLERRRRQFALKRVVDAAARRAKPVTGGGTSRDGDTPDLCVVCLDQKYNTAFVECGHMCCCTPCSLQLRTCPLCRERIQQVLKIYRH
Consider B4, for which the binding result in experiment [3] is “binds”.

B5: Stic1/Alb4 (protein, UniProt Q9FYL3 46-499)
chain: AQLGFRPDSFDFIKDHAENLLYTIADAAVSSSETFESVAGTTTKTTQSNDWFSGIANYMETILKVLKDGLSTVHVPYSYGFAIILLTVLVKAATFPLTKKQVESAMAMKSLTPQIKAIQERYAGDQEKIQLETARLYKLAGINPLAGCLPTLATIPVWIGLYRALSNVADEGLLTEGFFWIPSLAGPTTVAARQNGSGISWLFPFIEGHPPLGWPDTLAYLVLPLLLVFSQYLSIQIMQSSQSNDPAMKSSQAVTKLLPLMIGYFALSVPSGLSLYWLTNNILSTAQQVWLQKYGGAKNPVEKFTNLVTKEDKTQQIEKSFSEPLVQKSVSELKIPREKGGEKVTPECPKPGERFRLLKEQEAKRRREKEERQKAEAALSNQNTDKAHEQDEKSDTAIVAEDDKKTELSAVDETSDGTVAVNGKPSIQKDETTNGTFGIGHDTEQQHSHETEKR
With B5, the binding entry in experiment [1] and in experiment [2] was “no binding” in each case.
